# Data from article PMC4336329 (PLoS ONE, 2015).
# The campaign covered roughly 310,000 compounds. About 14,000 (4.5%) showed an effect of 50% or more. The effect is printed as a negative number. The list shows a part of the results.
# Target: human ether-à-go-go-related gene (hERG) potassium channel (human, UniProt Q12809)
# Assay: primary screen, population patch clamp on CHO cells stably expressing hERG
# 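Note: peak tail current of the secondary pulse compared with the same well before compound.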
# Sequence of human ether-à-go-go-related gene (hERG) potassium channel (Q12809 whole entry, looked up): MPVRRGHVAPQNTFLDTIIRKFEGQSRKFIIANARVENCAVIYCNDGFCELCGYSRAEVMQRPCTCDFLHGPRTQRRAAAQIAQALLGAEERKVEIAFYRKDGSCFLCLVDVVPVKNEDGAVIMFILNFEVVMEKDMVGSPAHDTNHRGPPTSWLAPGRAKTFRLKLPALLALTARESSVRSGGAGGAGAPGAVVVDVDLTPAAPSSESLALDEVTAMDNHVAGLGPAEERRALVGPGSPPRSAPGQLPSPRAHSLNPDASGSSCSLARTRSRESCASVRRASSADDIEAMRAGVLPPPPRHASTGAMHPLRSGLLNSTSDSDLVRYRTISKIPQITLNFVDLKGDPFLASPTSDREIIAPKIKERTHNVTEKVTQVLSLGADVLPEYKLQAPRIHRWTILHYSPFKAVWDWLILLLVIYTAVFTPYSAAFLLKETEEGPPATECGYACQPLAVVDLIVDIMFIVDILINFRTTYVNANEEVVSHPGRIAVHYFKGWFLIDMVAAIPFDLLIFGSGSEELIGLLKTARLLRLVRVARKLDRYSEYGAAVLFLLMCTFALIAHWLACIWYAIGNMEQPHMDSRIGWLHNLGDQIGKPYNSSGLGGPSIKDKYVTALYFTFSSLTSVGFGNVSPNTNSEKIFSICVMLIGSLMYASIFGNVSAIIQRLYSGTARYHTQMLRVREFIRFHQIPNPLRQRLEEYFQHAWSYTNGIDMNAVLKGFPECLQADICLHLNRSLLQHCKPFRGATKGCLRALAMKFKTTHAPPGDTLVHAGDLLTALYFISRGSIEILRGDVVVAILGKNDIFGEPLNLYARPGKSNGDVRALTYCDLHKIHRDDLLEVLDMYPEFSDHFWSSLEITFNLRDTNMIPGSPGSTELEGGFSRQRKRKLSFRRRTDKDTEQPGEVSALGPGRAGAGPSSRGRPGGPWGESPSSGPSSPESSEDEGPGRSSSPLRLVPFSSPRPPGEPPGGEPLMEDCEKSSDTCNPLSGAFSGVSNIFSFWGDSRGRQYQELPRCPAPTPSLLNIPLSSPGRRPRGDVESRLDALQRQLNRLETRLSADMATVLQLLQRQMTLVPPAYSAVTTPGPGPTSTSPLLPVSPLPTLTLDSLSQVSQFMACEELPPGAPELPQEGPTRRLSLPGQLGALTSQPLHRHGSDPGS
row,Structure (SMILES),"hERG current change (%, negative = inhibition) at 10uM [%]"
1,O=C(OCCCN1CCOCC1)c1ccc(O)c(O)c1,9.06
2,CN(C)c1ccc(C(C(=O)NCC2CCCO2)N(C(=O)c2snc(C(N)=O)c2N)c2ccc3c(c2)OCO3)cc1 (stereo not shown),8.72
3,O=C(CN1C(=O)C2CC=CCC2C1=O)NCC(=O)Nc1ccc(F)c(F)c1F (stereo not shown),7.55
4,Cc1ccc(CSc2nnc(-c3ccccn3)n2C)cc1,-3.39
5,Nc1nc(SCC(=O)c2ccc(F)cc2)n[nH]1,15.5
6,COc1cc(CC(=O)OC2CCOC2=O)cc(OC)c1OC (stereo not shown),12.7
7,S=C(c1ccc(Cl)cc1)N1CCN(Cc2ccccc2)CC1,-26.8
8,Cc1ccc(S(=O)(=O)N2CCN(CC3CC4C=CC3C4)CC2)cc1.O=C(O)C(=O)O (stereo not shown),2.29
9,CCCNC(=O)C(Cc1ccc(I)cc1)NC(=O)c1ccc(C#N)cc1 (stereo not shown),8.48
10,FC(F)(F)c1nc2cc3nc4ccccc4[nH]c3cc2n1,15.9
11,CC(=O)c1cccc(NC(=O)c2cc(=O)c3ccccc3o2)c1,12.3
12,CC1(C)Cc2cccc(OCC(=O)OCC(=O)Nc3cccc(S(N)(=O)=O)c3)c2O1,2.33
13,C=CSc1sc(Cl)c(N(C)C)c1[N+](=O)[O-],16.8
14,Cc1ccc(/C=N/n2c(COc3ccccc3)n[nH]c2=S)cc1,24.3
15,CC1(C)CC(CC(=O)O)C(=O)O1 (stereo not shown),7.6
16,COCc1cc(C)nc(N2CCN(Cc3ccccc3)CC2)c1C#N,-36.7
17,COc1ccccc1OC(C)C(=O)Nc1ccc2c(c1)n(C)c(=O)n2C (stereo not shown),13.2
18,CCN(CC)S(=O)(=O)c1ccc(C)c(NC(=O)COC(=O)CCC(=O)c2cccs2)c1,-2.82
19,Cc1ccc(/C=N/NC(=O)c2ccccn2)o1,-15.5
20,CN(C)CCN(C(=O)c1ccc2c(c1)CCCC2)c1nc2c(F)cccc2s1.Cl,-14.6
21,COc1cccc(/C=C2\SC(=S)N(CCCC(=O)N3CCCCC3)C2=O)c1,8.72
22,Cc1ccccc1OCc1nc2ccccc2c(=O)n1/N=C/c1c[nH]c2ccccc12,-0.579
23,COc1ccccc1-c1nc(SCC(=O)Nc2ccccc2)n[nH]1,-25.7

row,Structure (SMILES),"hERG current change (%, negative = inhibition) at 10uM [%]"
1,COCCOC(=O)C1=C(C)NC2=C(C(=O)CCC2)C1c1ccc(N(C)C)cc1 (stereo not shown),-2.66
2,Cc1cc(-c2nnc(SCC(=O)Nc3ccccc3C(F)(F)F)n2N)n[nH]1,20.4
3,Cc1nn(C)c(C)c1NS(=O)(=O)c1ccccc1Cl,4.16
4,CCC(c1nnnn1Cc1ccco1)N1CCC(C(N)=O)CC1.Cl (stereo not shown),12.9
5,CCN(CC)P(=O)(Nc1ccc([N+](=O)[O-])cc1)c1c(C)nn(CCC#N)c1NC(=O)c1ccc(Cl)cc1Cl (stereo not shown),3.17
6,CCC(C)N1CCCC1C(=O)Nc1c(C)cc(C)cc1C.Cl (stereo not shown),-2.36
7,C/C(=N/OCC(=O)NCCCCCCNC(=O)CO/N=C(/C)c1cccs1)c1cccs1,-20.8
8,CCc1cc(C(=O)NCCN(C)C)cs1,-11.2
9,C/C(=N\NC(=O)CSc1nc2ccccc2o1)c1cccc(O)c1,-3.71
10,COC(=O)c1cccc(NC(=S)N2CCN(C)CC2)c1,7.81
11,CCN(CC(=O)N1CCCC1)S(=O)(=O)c1ccc2ccccc2c1,5.08
12,CCC1CCc2c(sc(NC(=O)C3CC=CCC3C(=O)O)c2C#N)C1 (stereo not shown),-8.14
13,O=c1[nH]nc(N/N=C/c2ccccc2OC(F)F)c(=O)[nH]1,11.4
14,CCCN(CC(=O)Nc1cc(Cl)ccc1Cl)C(=O)c1ccc2n[nH]nc2c1,-33.4
15,C=CCN1C(=O)C(Cc2ccccc2Cl)SC1=Nc1ccc(C(=O)O)cc1 (stereo not shown),-5.65
16,Cc1cc(C)cc(NC(=O)CSc2ccc(-c3ccccn3)nn2)c1,8.61
17,CCN(CC)S(=O)(=O)c1cccc(C(=O)NC2=NCCS2)c1,-5.59
18,CC(C)COC(=O)NC1c2ccccc2Oc2ccccc21,-3.65
19,CC1=Nc2ccccc2/C1=C\c1nc(-c2ccc(F)cc2)oc1O,21.4
20,CC(=O)N1CCN(C(=O)CNC(=O)c2ccc(Br)o2)CC1,22.2
21,CC(C)C1Oc2ccccc2C(=O)N(CC(=O)c2ccc3c(c2)OCCO3)C1=O (stereo not shown),22.2
22,Cc1ccccc1OCCn1c(=S)[nH]c2ccccc21,12
23,O=C1c2ccccc2C(=O)c2[nH]cnc21,10.4

row,Structure (SMILES),"hERG current change (%, negative = inhibition) at 10uM [%]"
1,CCN(CC)C(=O)Oc1ccc(Cl)c2ccccc12,-12.5
2,COc1ccc2[nH]c3c(NCc4ccco4)ncnc3c2c1,-18.1
3,Cc1nnc(NC(=O)c2ccccc2F)s1,14.9
4,COc1ccc(NC(=O)CCN2C(=O)C3C4C=CC(C4)C3C2=O)cc1 (stereo not shown),2.21
5,Cc1ccc(N(CC(=O)O)C2SC(=O)NC2=O)cc1 (stereo not shown),4.69
6,Cc1cc(C(=O)O)c(CSc2ncn[nH]2)o1,14.4
7,Cc1cccc(N(CC(=O)N2CCN(c3ccccc3F)CC2)S(C)(=O)=O)c1,-10.7
8,COc1cc(NS(=O)(=O)c2ccc(NC(=O)/C=C/c3ccc([N+](=O)[O-])cc3)cc2)ncn1,14.3
9,CCOC(=O)c1c(NC(=S)N2CCN(C)CC2)sc2c1CCN(C(=O)OCC)C2,-2.02
10,COc1ccc(C(=O)O)c(O)c1,3.05
11,CCOC(=O)CN(C(=O)CNC(=O)c1ccco1)C(C(=O)NC1CCCC1)c1ccccc1OCC (stereo not shown),6.54
12,COc1ccc(CCNS(=O)(=O)CCNC(=O)c2ccc3c(c2)OCO3)cc1OC,1.47
13,COc1ccc(NC(=O)NCCCN2CCc3ccccc3C2)cc1,-69.2
14,CCOCC(=O)Nc1cc(C(=O)Nc2ccccc2)ccc1Cl,-1.16
15,Cc1ccccc1C(=O)NNC(=O)c1ccoc1C,-13.4
16,CSCCC(NC(=O)/C(=C\c1ccco1)NC(=O)c1ccco1)C(=O)O (stereo not shown),-1.15
17,Fc1ccccc1N1CCN(c2nnnn2-c2ccccc2)CC1,-2.42
18,CCCC(=O)Nc1cccc(NC(=O)c2ccc3c(c2)OCO3)c1,-52.3
19,COc1cccc(-c2nn(-c3ccccc3)cc2C(=O)Nc2nccs2)c1,-2.22
20,CC(C)c1nnc(NC(=O)C2CCCN(C(=O)Nc3ccc(F)cc3)C2)s1 (stereo not shown),-1.17
21,O=C(NNS(=O)(=O)c1ccc(F)cc1F)C1Cc2c(ccc3ccccc23)O1 (stereo not shown),16.7
22,C=CCn1c(=O)c(C(=O)NC2CC2)c(O)c2cc(OC)c(OC)cc21,10.5
23,CCc1cc(=O)oc2cc(C)cc(OCC(=O)NC(Cc3c[nH]c4ccc(O)cc34)C(=O)O)c12 (stereo not shown),16.1

row,Structure (SMILES),"hERG current change (%, negative = inhibition) at 10uM [%]"
1,O=c1nccc(Nc2ccccc2)[nH]1,16.4
2,O=C(Nc1ccccc1Br)C1CC(=O)N(c2ccc3c4c(cccc24)CC3)C1 (stereo not shown),0.563
3,Cc1cc2c(NC(=O)Nc3ccc(C(F)(F)F)cc3)cccc2nn1,-2.37
4,C[C@H]1CN=C(Nc2ccccc2)N1CCc1ccccc1,-9.89
5,O=C(COc1ccc2c3c(c(=O)oc2c1)CCCC3)NC(Cc1ccc(Cl)cc1)C(=O)O (stereo not shown),5.92
6,Cc1ccc(S(=O)(=O)NC(CC(C)C)C(=O)Oc2ccc3c4c(c(=O)oc3c2)CCC4)cc1 (stereo not shown),16.8
7,CCOc1cc(CN2CCN(S(=O)(=O)Cc3ccccc3)CC2)ccc1OC.O=C(O)C(=O)O,-10.9
8,O=C(CSc1nnnn1C1CCCCC1)NNC(=O)c1ccco1,11.3
9,COc1cccc(OCCNC(=O)c2cc(OC)c(OC)c(OC)c2)c1,19
10,COc1ccc(C(OC(=O)c2ccco2)C(=O)NC2CCCC2)cc1 (stereo not shown),25.1
11,CSc1sc(C(=O)N2CCc3ccccc32)cc1S(=O)(=O)C(C)C,14.2
12,CS(=O)(=O)c1ccccc1C(=O)Nc1cc2c(cc1C(=O)O)OCCCO2,-57.3
13,Cc1ccc(-n2nc3c([n+]2[O-])CCc2c-3no[n+]2[O-])cc1,14.3
14,O=C(NCc1ccc(N2CCCC2=O)cc1)c1cccc(Cl)c1,1.27
15,Cc1ccc(S(=O)(=O)N2CCSC2)cc1C,1.01
16,O=C(CCN1C(=O)C2CC=C(Cl)CC2C1=O)NC1CCCCC1 (stereo not shown),1.35
17,CC1=C(C(=O)OC(C)C)C(c2ccco2)NC(=O)N1 (stereo not shown),8.67
18,COc1cc(/C=C/C(=O)O)cc(S(=O)(=O)Nc2ccc3nc(SC)sc3c2)c1OC,11.3
19,Cc1ccc2cc(C#N)c(SCC(=O)NCC3CCCO3)nc2c1 (stereo not shown),12.3
20,C=CCn1cc(C(=O)NCCCOCC)c(=O)c2cc(S(=O)(=O)N(CC)CC)ccc21,-33.3
21,CC(C)(C)S(=O)(=O)c1cnc(-c2cnccn2)nc1N,9.53
22,O=C(O)c1ccc(NCc2nc3ccccc3n2CCOc2ccccc2Cl)cc1,14.1
